Data on 83 variants can be found in the RNAGym collection of RNA variant scans (doi:10.1093/nar/gkz1192).

B1: CPEB3 Ribozyme (parent)
chain: UAACAGGGGGCCACAGCAGAAGCGUUCACGUCGCAGCCCCUGUCAGAUUCUGGUGAAUCUGCGAAUUCUGCUGUAUAUCUC

Read counts are not given, so values of variants with three or more changes are uncertain.

Variants of B1 are the subject of this data set. Kind of data set: self-cleavage, relative activity (ratio to wild type); higher = more cleavage; in vitro, sequencing. The essentials:
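For each CPEB3 ribozyme variant, relative activity is its cleaved/total read fraction divided by the unmutated ribozyme's. Barcoded error-prone PCR libraries were transcribed by T7 RNA polymerase (5 hours, 37°C) and held in DNase I for 15 min before an EDTA stop, with cleavage occurring throughout. Template-switching reverse transcription and Illumina sequencing were used to read the RNAs. A 5-read minimum applied, and results are the mean of three batches.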
With C12G U25C U60A, the self-cleavage was found to be 0.16.
As for C12U U26A U67C U69C, the self-cleavage turned out to be 0.24.
The value for C12G A35G A57G U58A was 0.22.
The value for C12U A20G A35U U43A U74G was 1.27; that for C12U A47G A56G was 1.23; that for C12U A57G A64G A65G U80C was 0.2.
The result for C12U U66C U80C reads 0.4; that for C12U C38G U49C G70A U72C, 0.07.
In the case of C12U U58A A75G, the self-cleavage was 1.01.
The result for A13C C23A C39U U41C A65G reads 0; that for C12U C37U U43C, 0.58.
As to C12U A57G A64G, the self-cleavage amounted to 1.16.
Turning to C12U A18G G46A, the self-cleavage worked out at 0.18.
The value for A13C C17U A28U U43C C59A A65G was 0.15.
Turning to A13C U25C U31C U60A, the self-cleavage was determined as 0.22.
The value for A13C A47G A65G U66C was 0.23.
The value for A13C G19U A45C U54C U80A was 0.13.
The result for C12U A56G U58G U76A reads 0.43; that for C12G A18U U41C U54C U58A U67C, 0.1; that for A13C C39U A47U A57U, 0.05.
On to C12U A15C U25C C27U, for which the self-cleavage is 0.12.
The result for C12U A13G A45U U49C A65G reads 0.06; that for C12U U60A G61U A65G U80A, 0.41; that for A13C A20G U76C C81U, 0.84.
In the case of C12U A18G U49A, the self-cleavage was 0.83.
The result for A13C U41A U74C reads 0.65.
For C12U A20U U43A C79A, the self-cleavage stood at 0.96.
For the variant C12U U26A C29G U54C U58C U66C, the self-cleavage turned out to be 0.11.
Consider A13C A18G U26A C39A U78C, for which the self-cleavage was determined as 0.17.
The value for C12G A21G A28U A56G was 0.04.
The result for C12U U31C G36C G53A A77G reads 0; that for A13C U41A A64G, 0.07; that for C12G A18C U25C U26C U43C C68G U69C, 0.22.
For the variant A13C A35U U69C U74C, the self-cleavage was 0.16.
The value for A13C A20G U60C U74C was 0.38; that for A13C U31A A77G was 0.48; that for A13C U41A U54C A57C was 0.72.
The result for C12U U72G A77U reads 1.32; that for A13C C23A U48C, 0.07.
Consider C12U A15C G42U A56G, for which the self-cleavage is 0.16.
The value for C12U U25C A35G C44A was 0.08; that for A13C C17U A45G U69A was 0.22.
Take A13C C17U U25C U69A U80C: the self-cleavage is 0.09.
The result for A13C U31C A47G U54C U60C A65G U69A reads 0.17.
The result for C12U A20G A35C A45G A47G U48G U78C reads 0.11; that for C12U U31G U41C, 0.86; that for C12G A13G A20U A35G U74A, 0.13.
On to A13C C62U G73A, for which the self-cleavage stood at 0.17.
The value for A13C A47U U49A was 0.5.
The result for C12G U48C U60A U78G U80C reads 0.07.
The result for C12U U26C U43C U49C U80C reads 0.24.
Consider C12U U67A C71G, for which the self-cleavage came to 0.51.
The result for C12A U48C U54C reads 0.42.
The result for A13C A18U G30C U41C U49C U58C A77U reads 0.14; that for A13C G19C U80C, 0.18; that for C12U A13U U43C U72C, 0.31.
The value for C12U A21U A28G U76C was 0.2; that for C12G A15U U66C U76C was 0.2.
In the case of C12A U25C U41A A57G A64G, the self-cleavage worked out at 0.22.
The result for A13C A18U A21G A65G reads 0.34; that for C12U U43A U72C, 1.21.
A13C G24U G33C U41A A45C U80C: the self-cleavage was 0.07.
For the variant A13C A45G U78A, the self-cleavage turned out to be 0.81.
The result for A13C A15G G33A A57G reads 0.24; that for A13C A64G A75U, 0.99.
The result for C12U U26A U48C A57G U58A C59A reads 0.29; that for C12U U54C A77G, 1.11.
Regarding C12A U41A U43C U72C, the self-cleavage is 0.31.
The result for C12G A13G U25C A35U A56G U58C A64G reads 0.05.
The result for C12U G24A G30U A65G U74G reads 0.08; that for C12U A18U A45G U49C, 0.15.
The result for A13C C17U A28U U43C A56G U60C A65G reads 0.06.
Consider C12U A18G C29U U54A A56G A64G U78C, for which the self-cleavage was 0.19.
The value for C12A U31C U43A U80C was 1; that for C12U A15U A18C G55A was 0.06.
The value for A13C A21U U48C U49C was 0.18; that for C12U A18G U25C U78C was 0.2.
Consider C12U U58C A65G A75G, for which the self-cleavage was 0.51.
For the variant C12U U43A U76A, the self-cleavage was determined as 1.27.
The result for C12U C23G A35U A57U U72A reads 0.08; that for C12U U25C U41C U51C, 0.11.
The result for A13C U41A U69A U72C reads 0.15.
The result for A13C C14A A35G A75G reads 1.47.
